XTT absorbance data for 36 compounds are collected here from the supplement of paper PMC10322689.

Where “and” joins values, the source holds several entries; their conditions need not be identical. Identical values can stand only once. ± gives the standard deviation of the averaged measurements. Some of the results follow. Many values rest on one well or one pass, so single values are uncertain.

This assay relates to mouse mesenchymal chondrosarcoma cells (HEY1-NCOA2). As to the kind of experiment: XTT absorbance relative to DMSO control (cell viability) (fraction of DMSO control); higher = more viable cells / less growth inhibition. In general terms: Tetrazolium dyes change colour on reduction, which living cells bring about.
`CC(=O)N[C@@H](CSC(=O)[C@]1([C@@H](O)C(C)C)NC(=O)[C@H](C)[C@@H]1O)C(=O)O` [Lactacystin] yielded an XTT absorbance of 0.923.

Take `CO[C@@]12[C@H](COC(N)=O)C3=C(C(=O)C(C)=C(N)C3=O)N1C[C@@H]1N[C@@H]12` [Mitomycin C]: the XTT absorbance worked out at 0.649.

Take `CCNCCCNCCCCNCCCNCC` [N1,N12-Diethylspermine (BESpm)]: the XTT absorbance was found to be 1.19. In the case of `O=C(CCCCCN1C(=O)c2cccc3cccc(c23)C1=O)NO` [Scriptaid], the XTT absorbance came to 0.677.

For the compound `Nc1cccc2c1CN(C1CCC(=O)NC1=O)C2=O` (stereo unspecified) [lenalidomide], the XTT absorbance stood at 0.937. For `O=C(Nc1cccc2cccnc12)c1ccc(N2C(=O)[C@@H]3[C@H](C2=O)[C@@H]2C=C[C@H]3C2)cc1` [IWR-1-endo], the XTT absorbance stood at 0.91. In the case of `O=C1NC(=O)c2c1c1c3ccccc3[nH]c1n1cncc21` [isogranulatimide] it was 1.01. `O=C1C(SCCO)=C(SCCO)C(=O)c2ccccc21`: the XTT absorbance amounted to 0.774. The compound `O=C1CCC(N2C(=O)c3ccccc3C2=O)C(=O)N1` (stereo unspecified) [thalidomide] had an XTT absorbance of 0.976.

In the case of `CC(=O)O[C@H]1C(=O)[C@@]2(C)[C@H]([C@H](OC(=O)c3ccccc3)[C@]3(O)C[C@H](OC(=O)[C@H](O)[C@@H](NC(=O)c4ccccc4)c4ccccc4)C(C)=C1C3(C)C)[C@]1(OC(C)=O)CO[C@@H]1C[C@@H]2O` [Paclitaxel], the XTT absorbance was found to be 0.6. Consider `COC(=O)c1ccc(NCc2cc(O)ccc2O)cc1`, for which the XTT absorbance was 0.889 ± 0.014. As for `CCCC[C@@H](C)/C=C(C)/C=C(\C)C(=O)NC1=C[C@@](O)(/C=C/C=C/C=C/C(=O)NC2=C(O)CCC2=O)[C@@H]2O[C@@H]2C1=O` [Manumycin A], the XTT absorbance turned out to be 0.944. The same measure for `c1ccc2c(-c3cnn4cc(-c5ccc(N6CCNCC6)cc5)cnc34)ccnc2c1`: 0.743; for `CC(C)n1nc(-c2cc3cc(O)ccc3[nH]2)c2c(N)ncnc21` [Torkinib]: 0.406; for `CC[C@H](C)C(=O)O[C@H]1C[C@@H](C)C=C2C=C[C@H](C)[C@H](CC[C@@H]3C[C@@H](O)CC(=O)O3)[C@H]21` [Lovastatin]: 0.826. As to `N#C/C(=C\c1ccc2oc(=O)[nH]c2c1)C(=O)c1ccc(O)c(O)c1`, the XTT absorbance came out at 0.928.

The compound `NS(=O)(=O)c1ccc(Nc2nc(OCC3CCCCC3)c3[nH]cnc3n2)cc1` displayed an XTT absorbance of 0.915. With `NCC(=O)Nc1ccc(-n2nc(C(F)(F)F)cc2-c2ccc3c(ccc4ccccc43)c2)cc1`, the XTT absorbance was 1.02.

Regarding `O=C(c1cc(Cc2n[nH]c(=O)c3ccccc23)ccc1F)N1CCN(C(=O)C2CC2)CC1` [Olaparib], the XTT absorbance came out at 1.04.

As to `N=C(N)NC(=O)c1nc(Cl)c(N)nc1N` [Amiloride], the XTT absorbance was 0.886. In the case of `Cc1ccc(Nc2nccc(N(C)c3ccc4c(C)n(C)nc4c3)n2)cc1S(N)(=O)=O` [pazopanib] it was 0.835; in that of `Cn1c(=O)c2nc[nH]c2n(C)c1=O` [Theophylline], 0.918. Compound `CSc1ccc(/C=C2/C(C)=C(CC(=O)O)c3cc(F)ccc32)cc1` [Sulindac sulfide] had an XTT absorbance of 0.907. In the case of `CC(/C=C/C(=O)NO)=C\[C@@H](C)C(=O)c1ccc(N(C)C)cc1` [Trichostatin A] it was 0.244; in that of `O=c1cc(N2CCOCC2)oc2c(-c3ccccc3)cccc12`, 0.863 and 0.767. In the case of `COc1cc(/C=C(\C#N)C(N)=O)cc(CSc2nc3ccccc3s2)c1O` it was 0.936 ± 0.044. For `CC1=C(/C=C/C(C)=C/C=C/C(C)=C/C(=O)O)C(C)(C)CCC1` [tretinoin], the XTT absorbance stood at 1.06. `O=C(O)c1ccccc1Nc1ccccc1` [N-phenylanthranilic acid]: the XTT absorbance amounted to 0.92. The compound `C[S+]([O-])c1ccc(-c2nc(-c3ccc(F)cc3)c(-c3ccncc3)[nH]2)cc1` (stereo unspecified) yielded an XTT absorbance of 0.824. Turning to `C[n+]1cc2c3c(ccc2c2ccc4cc5c(cc4c21)OCO5)OCO3` [Sanguinarine], the XTT absorbance is 0.782. In the case of `COCC[n+]1c2c(n(Cc3cnccn3)c1C)C(=O)c1ccccc1C2=O` it was 0.351; in that of `O=Cc1ccc(N2CCOCC2)cc1O`, 0.904; in that of `CS(=O)(=O)Nc1ccc([N+](=O)[O-])cc1OC1CCCCC1`, 0.946. Consider `C[C@@H]1C[C@H]2[C@@H]3CCC4=CC(=O)C=C[C@]4(C)[C@@]3(F)[C@@H](O)C[C@]2(C)[C@@]1(O)C(=O)CO` [Dexamethasone], for which the XTT absorbance was 0.84. Turning to `Cc1cc(Nc2cc(N3CCN(C)CC3)nc(/C=C/c3ccccc3)n2)n[nH]1`, the XTT absorbance is 0.698. The same measure for `COc1cc2ncnc(Nc3cccc(Cl)c3)c2cc1OC`: 0.8207 ± 0.0069.
